Here are results for 56 variants from the RNAGym collection of RNA variant scans (doi:10.7554/elife.90254).

Read counts are not given, so values of variants with three or more changes are uncertain.

The labels stand for the following.
B1: LINE1-mini (parent)
chain: GGCAGAGCUCAACACAGCGUGGCAAAGUGGCUGUGGCUAGACUGCC

The variants in this data set derive from B1. Put plainly: self-cleavage, relative activity (ratio to wild type); higher = more cleavage; in vitro, sequencing; the parent is a self-cleaving ribozyme.
For GGCAGAGCUCAGAACAGCGUGGGAAAGUGGGUGUGGCUAGAAUGGC [A12G C13A C23G C31G C42A C45G], the self-cleavage is 0.06.
The result for GGCAGAGCUCACCAAAGCGUGGCAACGUGGCUGUGGCUAGACUGCG [A12C C15A A26C C46G] reads 0.01.
The result for GGCAGAGCUCACCACAGAGUGGCAAAGUGGCUGUGGCUAGAUUGCC [A12C C18A C42U] reads 0.03; that for GGCAGAGCUCAGAACACCGUGGUACAGUGGCUGUGGCUAGACUGCC [A12G C13A G17C C23U A25C], 0.03.
The result for GGCAGAGCUCACCAUAGCGUGGCAAAGUGGCUGUGGCCAGACUGCC [A12C C15U U38C] reads 0.02; that for GGCAGAGCUCAGUACAGCGUGGUAAAGUGGCUAUGGCUAGACUGCC [A12G C13U C23U G33A], 0; that for GGCAGAGCUCACCAAAGCGUGCCAAAGUGCCUGUGGCUAGACUGCC [A12C C15A G22C G30C], 0.03.
As to GGCAGAGCUCACCACAGCGUGGCAAAGUGGCUGUUGCUAGACUCCC [A12C G35U G44C], the self-cleavage was 0.
The result for GGCAGAGCUCACAACAGCGUGGUAUAGUGGCUGUGGCUAGACUGCC [A12C C13A C23U A25U] reads 0.02.
Regarding GGCAGAGCUCACCACAGCGUGGCAAAGGGGCUGUGGCUAGGCUGCC [A12C U28G A41G], the self-cleavage was 0.01.
The result for GGCAGAGCUCAGCACAGCGUGGCUAUGUGGCUGUGGCUAGACUCCC [A12G A24U A26U G44C] reads 0.02; that for GGCAGAGCUCACCACAGCGUCGCAAAGGGGCUGUGGCUAUACUGCC [A12C G21C U28G G40U], 0; that for GGCAGAGCUCACCACAGCGUUGCAAAGUGGCUGUGGCUAGACCGCC [A12C G21U U43C], 0.01.
The result for GGCAGAGCUCAGCACCGCGUGGCAAUGUGGCUGUGGCUAGAGUGCC [A12G A16C A26U C42G] reads 0.05; that for GGCAGAGCUCACCACAGCGUGGCAAAGUGGCUGUGGAGAGACUGCC [A12C C37A U38G], 0.02; that for GGCAGAGCUCACCACAUCGUGGCAAAGUGGCUGUCGCUAAACUGCC [A12C G17U G35C G40A], 0.01.
The result for GGCAGAGCUCAGAACAGCGUGGCAAAGUGGCUGUGGUUAGACUGCA [A12G C13A C37U C46A] reads 0.03; that for GGCAGAGCUCAGCAUAGCGUGGCAAAGUGGCUGUCGCUAGACUGCC [A12G C15U G35C], 0.05; that for GGCAGAGCUCACCACACUGUGGCAAAGUGGCUGUGGCUGGACUGCC [A12C G17C C18U A39G], 0.
As to GGCAGAGCUCAGCAUAGCGUGGCAAAGAGGCGGUGGCUAGACUGCC [A12G C15U U28A U32G], the self-cleavage worked out at 0.02.
On to GGCAGAGCUCACCACAGCGUGGAAAUGAGGCGGUGGAUAGACUGCC [A12C C23A A26U U28A U32G C37A], for which the self-cleavage amounted to 0.01.
As for GGCAGAGCUCACCACAGAGUGGCAAACUGGCUGUGGCUAGACUGCC [A12C C18A G27C], the self-cleavage worked out at 0.05.
As to GGCAGAGCUCAGCACAGCGUGGCAAAGUGGCUGUGGCUAGCAUGCC [A12G A41C C42A], the self-cleavage was determined as 0.01.
The result for GGCAGAGCUCACCACAGGGUGGCAGAGUGGCUGUGGCUUGACUGCC [A12C C18G A25G A39U] reads 0.02.
The result for GGCAGAGCUCACCACAGCGUGGCAAAGGGGCUCUGGCUAGACUGCC [A12C U28G G33C] reads 0.01; that for GGCAGAGCUCACCACAGCGUGGCAAAGUGGCUGUGGCUAUCCUGCC [A12C G40U A41C], 0.06; that for GGCAGAGCUCAGCAAUGCGUGGCAAAGUAGCGGAGUUUAGACUGCC [A12G C15A A16U G29A U32G U34A G36U C37U], 0.03.
As to GGCAGAGCUCACCAUAGCGUGGCAAAGUGGCUGUGGCUAGACUGAC [A12C C15U C45A], the self-cleavage is 0.05.
With GGCAGAGCUCACCAGAGCGUGGCGAAGUGGCUGUGGCUAGACUGCC [A12C C15G A24G], the self-cleavage turned out to be 0.01.
For GGCAGAGCUCACCACAUCGUGGCCAAGUGGCUGUGGCUUGACGGCC [A12C G17U A24C A39U U43G], the self-cleavage was 0.
For the variant GGCAGAGCUCAGCAUAGCGUGGCAAAGUGGUUGUGGCUAUACUGCC [A12G C15U C31U G40U], the self-cleavage amounted to 0.
The result for GGCAGAGCUCAGCACAGCGUGGCAAAGUGGAUGUGGUUAGACUGCC [A12G C31A C37U] reads 0.22; that for GGCAGAGCUCAGCAAGGCGUGGCAAAGUGGCUGUGGCUUGACUGCC [A12G C15A A16G A39U], 0.02; that for GGCAGAGCUCACCACAGCGUGGCAAAGUGGCUGUGGCCAAACUGCC [A12C U38C G40A], 0.01.
The result for GGCAGAGCUCAGCUAAGCGUGGCAAAGUGGCUGCGGCUAGACUGCC [A12G A14U C15A U34C] reads 0.02; that for GGCAGAGCUCACCACAGCGUGGUAAAGUGGCUGUGUGUAGACUGCC [A12C C23U G36U C37G], 0.02.
On to GGCAGAGCUCAGCACAGCGUGGCGAAGUGGAUGUGGCUAGACUGCC [A12G A24G C31A], for which the self-cleavage came to 0.05.
GGCAGAGCUCACCACAGCGUGGCAAAGUGGCUGUGACUCGACUGCC [A12C G36A A39C]: the self-cleavage came out at 0.01.
For the variant GGCAGAGCUCAGCAAAGCCUGGCAAAGUGGCUGUGGAUAGACUGCC [A12G C15A G19C C37A], the self-cleavage was determined as 0.01.
For the variant GGCAGAGCUCACCAGAGCGUGGCAGAGUGGCUGUGGCUAGACUGCC [A12C C15G A25G], the self-cleavage was 0.01.
For the variant GGCAGAGCUCAGCAAAGCGUGGCAAAGUGGCUGUGGCUAUACUGCC [A12G C15A G40U], the self-cleavage was 0.1.
The result for GGCAGAGCUCACCACAGCGUGGCAAAGUGGCUGUGGCGAGAAUGCC [A12C U38G C42A] reads 0.01; that for GGCAGAGCUCAGUACAGAGUGCCAAAGUGGCUGUGGCUAGACUUAC [A12G C13U C18A G22C G44U C45A], 0.01.
For GGCAGAGCUCACCACAGCGUGUCAAAGCGGCUGUGGCUAGACUUCC [A12C G22U U28C G44U], the self-cleavage was 0.01.
The result for GGCAGAGCUCAGUACAGCGUGGCAUAGUGGCUGUGGCUAGACUGCC [A12G C13U A25U] reads 0; that for GGCAGAGCUCAGCACCGCGUGGCAAAGUGGCUGUGGCUGGACUGCC [A12G A16C A39G], 0.
As to GGCAGAGCUCACCACAGCGUGGCAAACUGGCUGUGGCGAGCCUGCC [A12C G27C U38G A41C], the self-cleavage worked out at 0.
The result for GGCAGAGCUCACCACAGCGUAGCUAAGUGGCUGCGGCUAUUCUGCC [A12C G21A A24U U34C G40U A41U] reads 0.02.
The result for GGCAGAGCUCAGCACAGCGUGGCAAAGUGGCUGUGGCUAGUAUGCC [A12G A41U C42A] reads 0.01; that for GGCAGAGCUCAGCACCGGGUGGCAAAGUGGCUGUGGCUAUACUGCC [A12G A16C C18G G40U], 0.17; that for GGCAGAGCUCAGCACAGCGUGGCAAAGUGGGUGUGGAUAGACUGCC [A12G C31G C37A], 0.03.
Regarding GGCAGAGCUCACCACAUCGUGGCAAAGUGGCUGUGGCUAGACUGCU [A12C G17U C46U], the self-cleavage is 0.01.
As for GGCAGAGCUCACCACAGCGUAGCAAAGUGGCUGCGGCUUGAAUGCC [A12C G21A U34C A39U C42A], the self-cleavage amounted to 0.01.
In the case of GGCAGAGCUCACCACAGGGUGGCAAACUGGCUGUGGAUAGACUGCC [A12C C18G G27C C37A], the self-cleavage turned out to be 0.02.
For GGCAGAGCUCAGCACAGCGUGGGAAAGUGGCUGUGACUAGAAUGCC [A12G C23G G36A C42A], the self-cleavage is 0.
The result for GGCAGAGCUCACCACAUCGAGGCAAAGUGGCUGUGGCUAAAUUGCC [A12C G17U U20A G40A C42U] reads 0.
